From a compilation of properties of binary mixtures (doi:10.1016/j.jct.2022.106789)
Some of these densities may be calculated back from excess volumes.

Test: xn = mol fraction of the nth substance listed
Details: 100 kPa

CCCCCC[N+](CC)(CC)CC.O=S(=O)([N-]S(=O)(=O)C(F)(F)F)C(F)(F)F + CC(C)O
mass density [kg/m3]
Details | x2 = 0 | x2 = 0.096 | x2 = 0.2045 | x2 = 0.3101 | x2 = 0.4056 | x2 = 0.4987 | x2 = 0.5916 | x2 = 0.7088 | x2 = 0.8015 | x2 = 0.9193
293.15 K | 1293.6 | – | 1266.8 | 1248.5 | 1228 | 1203.1 | 1171.5 | 1117.2 | 1055.4 | 931.5
298.15 K | 1289.4 | 1277.9 | – | – | 1223.8 | – | 1167.1 | 1112.8 | 1051 | 927.1
303.15 K | 1285.2 | 1273.7 | 1258.4 | – | 1219.5 | 1194.5 | 1162.6 | 1108.3 | 1046.5 | 922.7
308.15 K | 1281 | 1269.5 | 1254.2 | 1235.8 | – | – | – | 1103.8 | – | –
313.15 K | 1276.9 | – | 1250 | 1231.5 | 1211 | 1185.9 | – | 1099.4 | 1037.5 | 913.8

CCCCCC[n+]1ccn(C)c1.O=S(=O)([O-])C(F)(F)F + CC(C)O
mass density [kg/m3]
Details | x2 = 0 | x2 = 0.1282 | x2 = 0.2454 | x2 = 0.3506 | x2 = 0.469 | x2 = 0.5728 | x2 = 0.6564 | x2 = 0.7574 | x2 = 0.8422 | x2 = 0.9231
293.15 K | 1243.6 | 1224.8 | 1204 | 1181.4 | 1149.8 | 1114.8 | 1079.6 | 1025.2 | 964.6 | –
298.15 K | 1239.7 | – | – | 1177.6 | – | 1110.7 | 1075.5 | 1021.1 | 960.6 | 883.1
303.15 K | 1235.7 | 1217 | 1196.3 | – | 1141.8 | 1106.7 | 1071.6 | 1017.1 | 956.7 | 879
308.15 K | 1231.9 | 1213.2 | 1192.5 | 1169.7 | 1137.9 | 1102.8 | 1067.5 | 1013 | 952.6 | 874.9
313.15 K | 1228.1 | 1209.4 | 1188.6 | 1165.8 | 1134 | 1098.6 | 1063.3 | 1008.9 | 948.4 | –

CC(C)O + CCCCCC[N+](CC)(CC)CC.O=S(=O)([N-]S(=O)(=O)C(F)(F)F)C(F)(F)F
x1 = 1
Details | mass density [kg/m3]
293.15 K | 785.3
313.15 K | 768

CC(C)O + CCCCCC[n+]1ccn(C)c1.O=S(=O)([O-])C(F)(F)F
x1 = 1
Details | mass density [kg/m3]
293.15 K | 785.3
303.15 K | 776.8
313.15 K | 768
